# Measurements from PubChem BioAssay AID651820 (National Center for Advancing Translational Sciences (NCATS), 2012).
# Hit rate of the full screen: of about 340,000 compounds, about 12,000 (3.5%) were called active. This list was built around the results that the source calls inconclusive (neither active nor inactive); the mix of calls is not that of the screen. Calls follow the shape of the dose curve; as a rule, active = well fitted inhibition curve with a large enough effect; inconclusive = small, poorly fitted or top-dose-only effect, or another doubt; inactive = no such curve, though single readings can be large or run the other way. No potency is given beside an inconclusive call; the fits are too rough.
# Test: qHTS Assay for Inhibitors of Hepatitis C Virus (HCV)
# Details: Huh7.5.1 HCVcc-Cre (HCVcc is cell-culture hepatitis C virus) infection, luciferase reporter, 44 h; activity change, negative = inhibition: at 41.8 µM (top of the series) unless noted
# In short: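 Whole-lifecycle infectious HCVcc-Cre system; cells 1,000/well, compound then virus (~0.5 moi) added 4 h after plating, 44 h culture. Luciferase read 15 sec following 15 min substrate incubation, room temp.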
# % is scaled to controls: 0 for no effect and ±100 for the full control effect; potency is read from the fitted curve at half-maximal effect; tags tell the direction and shape of the fitted curve.
SMILES,Potency,"activity change, negative = inhibition"
CN=c1scc(C)n1/N=C/c1ccc2c(c1)OCO2,"inconclusive [inhibitor, single point]",
CN(C)CCC(=O)N1c2ccccc2Sc2ccc(C(F)(F)F)cc21,"inconclusive [inhibitor, partial curve, poor fit]",
Cc1cc(Nc2ccc(Cl)cc2)nc(NCc2ccccc2)n1,"inconclusive [inhibitor, single point]",
Cc1ccc(NC(=O)c2ccc(CSc3nnc(C)s3)cc2)c(C)c1,"inconclusive [inhibitor, single point]",
Cc1cccc(NC2=C(Cl)C(=O)OC2OC(=O)c2ccco2)c1 (stereo not given),,inactive: 7.43%
CCCc1nn(C)c(C(=O)Nc2ccc(C)c(C)c2)c1Cl,,inactive: 6.69%
Cc1ccc(OCCCCNC2CCCC(C)C2C)c(C)c1 (stereo not given),active: 7.94 µM,
CC(C)OC(=O)c1ccc(NC(=O)CSc2nc3ncccc3[nH]2)cc1,active: 11.2 µM,
COc1ccc(CN(C)C(=O)CCCNC(=O)c2ccc(Cl)cc2)cc1,"inconclusive [inhibitor, partial curve]",
Cc1ccc(NC(=O)Cn2ncc(Cl)c(Cl)c2=O)cc1S(=O)(=O)N1CCCCC1,active: 10 µM,
CCCCCCc1ccc(O)cc1O,"inconclusive [inhibitor, partial curve]",
COc1cc(NC(=O)c2cc3c(=O)n(C)c4ccccc4c3n2C)cc(OC)c1OC,"inconclusive [inhibitor, full curve, poor fit]",
COc1ccc(N2C(=O)CC(N3CCN(c4ccccc4F)CC3)C2=O)cc1 (stereo not given),,inactive: -8.29%
CC(C)(C)c1ccc(/C=C(\C#N)C(=O)NCCN2CCOCC2)cc1,"inconclusive [inhibitor, partial curve, poor fit]",
CCOC(=O)c1cc(NC(=O)c2ccccc2)c(=O)n2c1oc1ccccc12,,inactive: 6.9%
OCCCNc1nc(-c2ccccc2)nc2c1oc1ccccc12,"inconclusive [inhibitor, partial curve, poor fit]",
CCOC(=O)CSc1nc2c(c(=O)[nH]c(=O)n2C)n1Cc1ccccc1,active: 2.82 µM,
CCN(CC)S(=O)(=O)c1ccc(N2CCCC2)c(NS(=O)(=O)c2cccs2)c1,"inconclusive [inhibitor, partial curve]",
CC1Cc2ccccc2N1Cc1nc2cc(C(F)(F)F)ccc2c(=O)[nH]1 (stereo not given),"inconclusive [inhibitor, partial curve]",
CNC(=O)Cn1nc(-c2ccc(C)cc2)c2ccccc2c1=O,,inactive: 14.7%
COc1cc(C)c(Br)cc1S(=O)(=O)NCc1ccncc1,"inconclusive [inhibitor, full curve]",
CCOc1ccc(C(=O)NC(=S)Nc2ccccc2N2CCC(C)CC2)cc1[N+](=O)[O-],"inconclusive [inhibitor, partial curve]",
COc1cccc(OC)c1C1=NCC(=O)Nc2c1oc1ccc(Br)cc21,"inconclusive [inhibitor, partial curve]",

SMILES,Potency,"activity change, negative = inhibition"
COc1cc2c(cc1OC)CN(c1ccc(-c3ccccc3OC)nn1)CC2,"inconclusive [inhibitor, single point]",
Cc1cc(C)c2nc(SCCC#N)nc(C)c2c1,"inconclusive [inhibitor, single point]",
COc1ccc(-c2nc(CS(=O)CC(=O)NCc3ccc(Cl)cc3)c(C)o2)cc1 (stereo not given),"inconclusive [inhibitor, single point]",
CCC1C/C(=C\c2cccnc2)C(=O)/C(=C/c2cccnc2)C1 (stereo not given),"inconclusive [inhibitor, full curve]",
CCN1CCN(C(=O)C2=CC(c3ccc(OC)cc3)=NS(=O)(=O)N2C)CC1,,inactive: 11.1%
O=C(Nc1ccncc1)c1cn(-c2ccccc2)nc1-c1cccs1,"inconclusive [inhibitor, single point]",
COc1cc(C(=O)c2nccc3cc(OC)c(OC)cc23)c([N+](=O)[O-])cc1OC,"inconclusive [inhibitor, partial curve]",
CCOc1ccccc1NC(=O)NCCc1c[nH]c2ccccc12,"inconclusive [inhibitor, single point]",
CCN(CC(=O)Nc1ccccc1OC)CC(=O)Nc1sccc1C#N,"inconclusive [inhibitor, single point]",
COc1ccc(/C=N\NC(=O)c2c(C)nc3ccc(Br)cn23)cc1,,inactive: 3.16%
Cc1cc(C)c(NC(=O)COC(=O)CCc2ccc(S(=O)(=O)N3CCCCC3)cc2)c(C)c1,,inactive: -0.216%
N#C/C(=C\C1=C(N2CCOCC2)C(=C\c2ccccc2)/CC1)C(=O)Nc1ccccc1F,"inconclusive [inhibitor, full curve]",
CCCCn1nnc(NC(=O)c2ccc(-c3ccccc3[N+](=O)[O-])o2)n1,"inconclusive [inhibitor, partial curve]",
Cc1cc[n+](CC[n+]2ccc(C)cc2)cc1,,inactive: 19.9%
C/C(=N\NC(=O)OC(C)(C)C)c1ccc(-n2ccnc2)cc1,,inactive: 12.7%
CCN1CCN(CCNC(=O)c2ccc3c(c2)N(Cc2ccc(F)cc2)C(=O)/C(=C/c2ccccc2)S3)CC1,"inconclusive [inhibitor, single point]",
CC1(C)NC(=O)N(c2ccc([N+](=O)[O-])c(C(F)(F)F)c2)C1=O,"inconclusive [inhibitor, partial curve, poor fit]",
O=C(c1ccc(Cl)cc1)c1cnc(Nc2ccccc2Cl)s1,"inconclusive [inhibitor, single point]",
CN(CC(=O)NCCc1ccc(S(N)(=O)=O)cc1)CC(=O)Nc1ccc(Cl)c(C(F)(F)F)c1,"inconclusive [inhibitor, single point]",
CC12CCCCC1=[N+]([O-])CN2O (stereo not given),,inactive: 13.5%
CN(CC(=O)NNC(=O)CNC(=O)c1cccs1)S(=O)(=O)c1ccc(Cl)cc1,,inactive: 8.74%
CC(C)(C(N)=O)N1CCN(c2ncc(C(F)(F)F)cc2Cl)CC1,"inconclusive [inhibitor, single point]",
